T1: UNK ZnF1-3 (human, UniProt Q9C0B0 31-174)
T1 sequence: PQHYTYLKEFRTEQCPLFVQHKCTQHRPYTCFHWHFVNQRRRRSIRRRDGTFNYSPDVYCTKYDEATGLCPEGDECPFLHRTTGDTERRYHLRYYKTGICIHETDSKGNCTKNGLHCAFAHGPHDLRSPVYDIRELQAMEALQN

B1: chr4:62048941:62048942:+_ENSMUSG00000066150_ENSMUST00000084526|mus_hu|FALSE|FALSE (ssRNA)
RNA: GGGAGUUCUACAGUCCGACGAUCUUGUGACUUACGCAGCAGGCUCUCUCGGGCUAUCUUGAGUCCUUCAUAGAACAUUGCUAGUAAAAACACUGCCACAAAAGCUCCAGCCAUUUCUCCAGCUGUAUUGAUCACCAAACCGGACAACAGAGGAUUGAGCAUCA
B2: chr6:38652254:38652255:-_ENSG00000124767_ENST00000373365|hu_hu|hu_hu_hu_mus_False|8_18 (ssRNA)
RNA: GGGAGUUCUACAGUCCGACGAUCCGAGAACUUCAUAGCAGGGAAGUCAAGCUUCUGCAGGAGGGUCAGUCCAAGAACCCUCGUAUAAAAAUCCAGGGACUUCUUAGGAUCCUUAAUUCGUAGCAUGGUCUGCUGCAGUAGAAACAACAGAGGAUUGAGCAUCA
B3: chr4:116827845:116827846:-_ENSMUSG00000047675_ENSMUST00000140226|mus_mus|motif|central (ssRNA)
RNA: GGGAGUUCUACAGUCCGACGAUCACAAGUCCUUGCAUUGGCAAGUGGUGUACAGGUGGCCAAGACGGCCAUAACCACGCCGGAGGAUACGUUUUCAUCACCCUAGUUACCUCCAGAAAAAGCCAGACCCCCCCUAACACAGGACAACAGAGGAUUGAGCAUCA
B4: chr22:32879901:32879902:+_ENSG00000100225_ENST00000397426|hu_mus|hu_hu_hu_mus_False|1_18 (ssRNA)
RNA: GGGAGUUCUACAGUCCGACGAUCCUCUUCCAUACUCAUGGCAUCCUGAAUUGACUCAGCUUCAACAUUUUGACUAGGCCCUUCCAUACUGUCAUCAGUCCAGGCAUCAAAUGGGGUUGCCUGUCCUUGGGAUGAAUCACUUGGCAACAGAGGAUUGAGCAUCA
B5: 39555151_39564275_314_CDS_ENSMUSG00000025862_ENSMUST00000069619|mouse|control|control (ssRNA)
RNA: GGGAGUUCUACAGUCCGACGAUCCUUUUUGCCUUUUUUACAAGUUUUGCCUUUGCCUUGCUUCUGAUUUUUUCCUUCAAUGUCUUCAAAAUCUGUGUCAGAAGAAAAGUGUGUCUCUGACUCCUGCAGUAGAUUAAAAUCAGUCAACAGAGGAUUGAGCAUCA
B6: 25140530_25140650_2237_CDS_ENSMUSG00000026965_ENSMUST00000028341|mouse|control|control (ssRNA)
RNA: GGGAGUUCUACAGUCCGACGAUCUGAGUCACUCUCAUCAUCACUGUCAAUCAGCACCAUGUUGUCCCUAUCCUGAGGCCGCUCUUCCUCAAUGACAGAGAAAGUGCCUGGAGGUUCCUCCCGCAGCACACCCUGUUGCAGCCACAACAGAGGAUUGAGCAUCA
B7: chr19:15981513:15981514:-_ENSMUSG00000024640_ENSMUST00000025542|mus_hu|FALSE|FALSE (ssRNA)
RNA: GGGAGUUCUACAGUCCGACGAUCUAAAGCAUCAUCUCCUUUGGCAUUGCCAAUGCGGAAUGGAAUAUUCAUCUUGCUUCUAUUUUGGGGCUCCACUGGACAAACGUAGAAUCCUUGAGAAUUAUCAAUAAUCUCAUAAAUUGUCAACAGAGGAUUGAGCAUCA
B8: 37602415_37605724_1144_CDS_ENSG00000102710_ENST00000475892|human|control|control (ssRNA)
RNA: GGGAGUUCUACAGUCCGACGAUCUUCAAAUACAUAAUCAUCUUUUACAUCAUGGGCUGGCCAGACUGUUGGCUGUGAGUCAUCAGAUUUGAUAGACUUUUCCACUUUAGCAUAUUUCUCCACAUCUACUUCAGAAGGUAUGGCCAACAGAGGAUUGAGCAUCA
B9: chr2:42509997:42509998:+_ENSG00000143924_ENST00000318522|hu_mus|hu_hu_hu_mus_True|58_78 (ssRNA)
RNA: GGGAGUUCUACAGUCCGACGAUCUCGCUGAGUCCUCUCCUCAUAAUUAAACAGGACUACUACUGAUGCGAUAAAAUAAACUAUUUUCCCUGUGGGAAGCAGGUAUACAUUCGCUCUACAGUCCUUUCCUCGAUAACCGUAUACCAACAGAGGAUUGAGCAUCA
B10: chr8:95500983:95500984:-_ENSG00000164944_ENST00000437199|hu_hu|hu_hu_hu_mus_True|1_8 (ssRNA)
RNA: GGGAGUUCUACAGUCCGACGAUCAGAACACAUCUAUCGAGUAAAGGACCGUACAUGACGGCCUCUACCACUGCCUCCACUAACAAACUUUCCUCUCGAGCCUCCACUGCCGCUAUUUGUACUAGCCCCAGGAAGGUCCAAGUCCAACAGAGGAUUGAGCAUCA
B11: chr16:94690093:94690094:+_ENSMUSG00000040785_ENSMUST00000117648|mus_hu|mus_mus_mus_hu_True|18_28 (ssRNA)
RNA: GGGAGUUCUACAGUCCGACGAUCGGGCUGGGAUGACGGACACACAGCCUCGAUUCCAGGGGGAAAAAGUCUUAGUCGAUACUAAUUAAAAAGUGUUAAUGAUUUUUAUUACCAAAAUGUAGAUUAAAAAAGAUGAAAAGCAAACAACAGAGGAUUGAGCAUCA
B12: 13601392_13601512_7207_CDS_ENSG00000038219_ENST00000040738|human|control|control (ssRNA)
RNA: GGGAGUUCUACAGUCCGACGAUCGCUGGGCAUGGGGACCUUGUGCUUGCUCACUUCUGUGGCUGACAGGUCACCGUUCCCUUCUGGGUUGUCUGCAGUCAGCUGAUUCUCUUCAUGUCUGUCAAUGCUGGCGGAAAUUGGCAUCAACAGAGGAUUGAGCAUCA
B13: chr4:57860909:57860910:+_ENSG00000047315_ENST00000314595|hu_mus|FALSE|FALSE (ssRNA)
RNA: GGGAGUUCUACAGUCCGACGAUCAUCUGUUAAGCCAUUUAACAGGCAGUAGGUGGAGCGCAGCAUAAUUGGAAUUUUCCCUAUGAACGUUUUCUGGUGCUGAGUCUGCAGCUGUUCUUCACCUUCUUUAAUGACUGUCUUUGUCAACAGAGGAUUGAGCAUCA
B14: chr4:48472875:48472876:-_ENSMUSG00000028345_ENSMUST00000030030|mus_mus|FALSE|FALSE (ssRNA)
RNA: GGGAGUUCUACAGUCCGACGAUCACUGUUCAAUCUAGUGCCACCUUUAAGGGUCUCCGUCACAAACUUCCUUAUUGUUUCUAUCCAACUGGAAUCAUUCUGUAAGGUUGAAGCAUUUGCCAGCGAGACCAUGAUAUCAGACAGCAACAGAGGAUUGAGCAUCA
B15: chr12:2981354:2981355:-_ENSG00000111206_ENST00000359843|hu_mus|FALSE|FALSE (ssRNA)
RNA: GGGAGUUCUACAGUCCGACGAUCGCAGGGGCCCAGCCCGUCAGAACUCAUCUUUCCAAGCCACUGGAUAUUGGUUAAGCUGUUGUCCAGCGUGCAGCCUGCCGCCUCACCACCAGCAUAGCUCUCCUGUCUUUGCCUUGGAGGCAACAGAGGAUUGAGCAUCA
B16: chr3:158399885:158399886:+_ENSG00000168827_ENST00000264263|hu_hu|motif|central (ssRNA)
RNA: GGGAGUUCUACAGUCCGACGAUCUUCAUCUGAAAAUUCCAAUUUAGUGUAGUCCUCUGGGUCCAGAGGCUCCAGGACACCGGUUACUUUUCCAUACUGGCCUGCACCACCUGAUUGUUUUUUAUGUGUAAAGUCAAACGGGACCAACAGAGGAUUGAGCAUCA
B17: 15614643_15618832_3151_3pUTR_ENSMUSG00000021733_ENSMUST00000057015|mouse|control|control (ssRNA)
RNA: GGGAGUUCUACAGUCCGACGAUCCUUGCGCACAAAGACUAAUGCAAGAACCAUCAUGGGAAAAACUACUGCAGCAGCAGAGGCUUUGAUCACCCACAGCAGGACUAGGCAGGUCAGCUGGACGACCGUGAACACGUGCACCUUCAACAGAGGAUUGAGCAUCA
B18: chr7:30890253:30890254:+_ENSMUSG00000049421_ENSMUST00000108200|mus_mus|FALSE|FALSE (ssRNA)
RNA: GGGAGUUCUACAGUCCGACGAUCUUCUUUCUGGCUAAAAGCCUUACCACACUCAUUACACUUAAAAGGUUUCUUCCCACUAUGGAUAUUCUGGUGUUUAAUGAGGUAUUGCUUCUGGCUGAAGGCUCUUCCACACUGACUACACAACAGAGGAUUGAGCAUCA
B19: chr10:70718461:70718462:-_ENSMUSG00000019927_ENSMUST00000020085|mus_mus|FALSE|FALSE (ssRNA)
RNA: GGGAGUUCUACAGUCCGACGAUCGUAAAAACCAAAGGGCUCGUGGAACGAAGGACACGGCAAACGGCGCCCGGCUUAAUGCUAACGCUGGAAAAGACAUAGAUUUUACAGUACUCUGGCGUAAGUGAAAGUGUUUGAAACUUUCAACAGAGGAUUGAGCAUCA
B20: chr4:76721835:76721836:+_ENSG00000138768_ENST00000264904|hu_mus|hu_hu_hu_mus_True|28_28 (ssRNA)
RNA: GGGAGUUCUACAGUCCGACGAUCGUUUGGCUGGGGUUUCUGAGACGCUCUGGAAUAUAACUCAUGUUUGCUAAUAAAUCCUAGUUUCUCUAUGAAAUUCUCUUUGCAAUCCUCUUCCUCUAUUAGUUGCUUUAGUUUCUCUUUCAACAGAGGAUUGAGCAUCA
B21: 100451482_100455505_703_CDS_ENSG00000114354_ENST00000490574|human|control|control (ssRNA)
RNA: GGGAGUUCUACAGUCCGACGAUCAACGCCUGGUGGGUGAGCUGCUGAGGAGGAGGAAGCAAUGCUGUCGGGUGUUCCUGAACGAUCUUCUGCAGGAGCACUGGGUGGCCCUGAAACCUGAUCAUCUGUUAAGCCAAACGCUGACAACAGAGGAUUGAGCAUCA
B22: 121154423_121154905_660_CDS_ENSMUSG00000053931_ENSMUST00000029773|mouse|control|control (ssRNA)
RNA: GGGAGUUCUACAGUCCGACGAUCUACACUCUGGCCAGCCUUUAAUUUGCCUUCAUCAAAACGUCUUGUUUGUUUUUCUGCAUACUUAACGCCAAUGUCAAUGGUUGUAUGGAAUCCUUUUGUUUUCGCCAGACCUGCUAGAGCCAACAGAGGAUUGAGCAUCA

The other results are listed elsewhere or left out.

The target of the experiment is T1, UNK ZnF1-3. In words: nsRBNS (natural sequence RNA bind-n-seq); RBNS binding buffer (assumed for nsRBNS): 25 mM Tris pH 7.5, 150 mM KCl, 3 mM MgCl2, 0.01% Triton X-100, 500 ug/ml BSA, 20 U/ml SUPERase-In, 4 C; UNK is unkempt and MSI1 is Musashi-1; names of the RNAs are library labels; protein concentration not given here; high values mean tight binding.
Regarding B1, the binding signal worked out at 0.629 enrichment R.
The molecule B2 registered a binding signal of 0.631 enrichment R.
The figure for B3 is 0.968 enrichment R; for B4 it is 0.817 enrichment R.
For the molecule B5, the binding signal was determined as 0.712 enrichment R.
B6 gave a binding signal of 0.832 enrichment R.
As to B7, the binding signal worked out at 0.811 enrichment R.
For the molecule B8, the binding signal came out at 0.772 enrichment R.
In turn, B9 yielded a binding signal of 1.5 enrichment R.
Take B10: the binding signal was determined as 0.727 enrichment R.
As for B11, the binding signal came out at 2.72 enrichment R.
Consider B12, for which the binding signal was found to be 0.283 enrichment R.
B13 registered a binding signal of 0.561 enrichment R.
The molecule B14 registered a binding signal of 0.859 enrichment R.
The figure for B15 is 0.503 enrichment R; for B16 it is 0.989 enrichment R.
B17 registered a binding signal of 1.52 enrichment R.
The molecule B18 came in with a binding signal of 0.644 enrichment R.
In turn, B19 had a binding signal of 0.757 enrichment R.
Next, B20: 0.475 enrichment R; B21: 2.05 enrichment R.
B22 registered a binding signal of 0.598 enrichment R.

(Values after article PMC12136788.)
